“And” between values parts separate entries of the source, which are not always exact repeats. Identical values can stand only once. Screen size: about 230,000 compounds; about 3,600 (1.6%) were called active. Inconclusive results, whose numbers are uncertain, are shown with a selection of clear calls. Calls come from the whole dose curve; as a rule, active = well fitted inhibition curve with a large enough effect (not every such curve was filed as active); inconclusive = small, poorly fitted or top-dose-only effect, or another doubt; inactive = no such curve, though single readings can be large or run the other way. A potency beside an inconclusive call is a rough fit, not a confirmed value.
What follows are compounds tested against Lysine-specific demethylase 4E (Homo sapiens) (UniProt B2RXH2) (assay: qHTS Assay for Inhibitors of Human Jumonji Domain Containing 2E (JMJD2E)). Conditions: JMJD2E catalytic domain, FDH-coupled NADH fluorescence (FDH is formaldehyde dehydrogenase); series mostly up to 57.1 µM; activity change, negative = inhibition: at the top concentration.
UniProt B2RXH2, sequence (B2RXH2 whole entry, looked up, the tested form may be a part): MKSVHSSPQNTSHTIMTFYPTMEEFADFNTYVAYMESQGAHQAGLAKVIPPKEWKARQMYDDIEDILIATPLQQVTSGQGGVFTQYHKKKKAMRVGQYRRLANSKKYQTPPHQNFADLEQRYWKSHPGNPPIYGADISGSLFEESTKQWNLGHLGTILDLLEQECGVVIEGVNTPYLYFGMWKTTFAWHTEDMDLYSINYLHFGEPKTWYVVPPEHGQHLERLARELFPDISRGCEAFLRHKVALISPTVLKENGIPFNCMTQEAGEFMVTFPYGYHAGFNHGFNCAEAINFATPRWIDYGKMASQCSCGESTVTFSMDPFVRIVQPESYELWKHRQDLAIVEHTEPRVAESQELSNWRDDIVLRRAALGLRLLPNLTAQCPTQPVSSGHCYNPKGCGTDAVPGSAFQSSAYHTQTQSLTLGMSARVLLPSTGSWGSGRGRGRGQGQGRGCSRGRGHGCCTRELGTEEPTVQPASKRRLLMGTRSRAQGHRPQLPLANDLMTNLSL
`COc1cc(-c2cc(C(=O)Nc3ccccc3N3CCOCC3)c3ccccc3n2)cc(OC)c1OC` was tested, and the Potency was inconclusive: 35.5 µM [inhibitor, single point]. For `Nc1c(C(=O)NCc2ccccc2)sc2nc(N3CCOCC3)c3c(c12)CCCC3`, the Potency was inconclusive: 28.2 µM [inhibitor, partial curve]. With `Cc1cc(C)n(-c2ccc3nnc(C)n3n2)n1` the Potency was inconclusive: 35.5 µM [inhibitor, single point]. For `COc1ccc(-c2[nH]ncc2CNCc2cc(C)n(C)n2)c(F)c1`, the Potency was inconclusive: 28.2 µM [inhibitor, partial curve]. `CCOc1ccc(N2C(=O)CC(NCCNc3ccc(C(=O)c4cccs4)cc3)C2=O)cc1` (configuration not stated) was tested, and the Potency was inconclusive: 35.5 µM [inhibitor, single point]. For `CCOC(=O)c1sc(N/N=C/c2cccc(C)c2)nc1C`, the Potency was inconclusive: 25.1 µM [inhibitor, single point]. `CC(C)N1CC=C2C(C#N)=C(N)C(C#N)(C#N)C(c3ccccc3)C2C1` (configuration not stated) was tested, and the Potency was inconclusive: 31.6 µM [inhibitor, partial curve]. For `N#C/C(=C\c1ccc(Cl)cc1)c1nc2ncccc2[nH]1`, the Potency was inconclusive: 14.1 µM [inhibitor, partial curve]. In the case of `Cc1ccc(/C=C/C(=O)NCc2ccccn2)o1`, the “activity change, negative = inhibition” value was inactive: -22.6%. In the case of `O=C(CSc1nnnn1Cc1ccccc1)Nc1ccc2c(c1)OCO2`, the “activity change, negative = inhibition” value was inactive: 0.177%. For `O=C(CSc1nc2ncc(Br)cc2[nH]1)c1ccc([N+](=O)[O-])cc1`, the “activity change, negative = inhibition” value was inactive: -2.57%. In the case of `COc1ccc(/C=N/NC(=O)c2ccccc2)cc1OS(=O)(=O)c1ccccc1`, the Potency was inconclusive: 8.91 µM [inhibitor, single point]. For `COc1ccc(N2CCN(CC(O)c3c[nH]c4ccc(OC)cc34)CC2C)cc1` (configuration not stated), the Potency was inconclusive: 39.8 µM [inhibitor, single point]. With `Cn1c(C(=O)NCCCN2CCc3ccccc3C2)cc2c(=O)n(C)c3ccccc3c21` the Potency was inconclusive: 31.6 µM [inhibitor, partial curve]. `Cc1ccc2nc(SCC(=O)Nc3ccc4c(c3)OCCO4)[nH]c2c1` was tested, and the “activity change, negative = inhibition” value was inactive: 2.28%. With `COc1ccc2cc(C(c3nnnn3C3CCCC3)N3CCc4ccccc4C3)c(=O)[nH]c2c1` (configuration not stated) the Potency was inconclusive: 28.2 µM [inhibitor, single point]. `CC(C)N=c1scc(-c2ccco2)n1/N=C/c1ccc(O)c(O)c1` was tested, and the Potency was inconclusive: 31.6 µM [inhibitor, single point]. With `COC(=O)c1[nH]c2ccc(C)cc2c1NC(=O)C(C)N1CCN(C2CCCCC2)CC1` (configuration not stated) the Potency was inconclusive: 35.5 µM [inhibitor, partial curve]. With `Cn1c(SCc2nnc(-c3ccccc3)o2)nc2ccccc21` the “activity change, negative = inhibition” value was inactive: -19.8%. `CS(=O)(=O)N(CC(=O)Nc1ccccc1C(=O)NCc1ccccc1)c1ccc2c(c1)OCCO2` was tested, and the Potency was inconclusive: 39.8 µM [inhibitor, single point]. For `COc1cccc(C2=NN(S(C)(=O)=O)C(c3cccs3)C2)c1` (configuration not stated), the Potency was inconclusive: 31.6 µM [inhibitor, single point]. With `COCCNCC(=O)NC12CC3CC(CC(C3)C1)C2` the “activity change, negative = inhibition” value was inactive: 4.07%. In the case of `CCOC(=O)c1cc(-c2nnc(-c3ccc(Oc4ccccc4)cc3)o2)c(C)nc1C`, the Potency was inconclusive: 7.08 µM [inhibitor, single point]. In the case of `Cn1c(=O)[nH]c(=O)c2c1nc(N/N=C/c1ccncc1)n2Cc1ccc(F)cc1`, the Potency was inconclusive: 35.5 µM [inhibitor, single point]. For `CCOC(=O)CN1C(=O)N[C@@H](c2ccco2)C(C(C)=O)=C1C`, the activity change, negative = inhibition was inactive: 3.91% [at 11.4 µM]. For `CC(NC(=O)COc1ncnc2cc([N+](=O)[O-])ccc12)c1ccccc1` (configuration not stated), the “activity change, negative = inhibition” value was inactive: -8.74%. In the case of `COc1cccc(-c2cc(C(=O)N3CCN(c4ncccn4)CC3)c3ccccc3n2)c1`, the Potency was inconclusive: 39.8 µM [inhibitor, single point]. `COc1ccc(Nc2nc(N)c([N+](=O)[O-])c(N3CCOCC3)n2)cc1` was tested, and the “activity change, negative = inhibition” value was inactive: -2.19%. For `O=C(O)c1cccnc1Sc1ncnc2sc3c(c12)CCC3`, the Potency was inconclusive: 28.2 µM [inhibitor, partial curve]. For `CCN(CC)CCCCn1c(-c2ccccc2)nc2c(NCCOC)nc(C)nc21`, the Potency was inconclusive: 28.2 µM [inhibitor, partial curve]. In the case of `CCC1CSC(Nc2ccc(C(=O)/C=C/c3cccc(C)c3)cc2)=N1` (configuration not stated), the “activity change, negative = inhibition” value was inactive: -0.11%. `COc1cccc(C=Nc2ccc3c(c2)OCCO3)c1O` was tested, and the “activity change, negative = inhibition” value was inactive: -5.97%. `O=P(CO)(Cc1ccccc1)Cc1ccccc1` was tested, and the “activity change, negative = inhibition” value was inactive: -2.73%. For `CC(C)(C)CC(C)(C)NC(=S)Nc1ccc2nc(-c3ccccn3)c(-c3ccccn3)nc2c1`, the Potency was inconclusive: 35.5 µM [inhibitor, single point]. For `CCN(CC)CCN1C(=O)C(O)=C(C(C)=O)C1c1ccccc1[N+](=O)[O-]` (configuration not stated), the Potency was inconclusive: 25.1 µM [inhibitor, partial curve]. With `COc1cc(-c2cc(=O)c3ccccc3o2)ccc1O` the Potency was inconclusive: 39.8 µM [inhibitor, single point] and inconclusive: 35.5 µM [inhibitor, partial curve, poor fit]. With `O=C(CCl)Nc1ccc(N=Nc2ccccc2)cc1` the Potency was inconclusive: 39.8 µM [inhibitor, single point]. `COC(=O)c1ccc(CNCC(=O)Nc2ccc(C(=O)OC)cc2)cc1` was tested, and the “activity change, negative = inhibition” value was inactive: 1.54%. `COc1ccc(/C=N\NC(=O)/C(=C\Nc2nccc(C)n2)NC(=O)c2ccccc2)cc1` was tested, and the Potency was inconclusive: 5.01 µM [inhibitor, full curve]. For `O=C(O)Cn1c(-c2ccccc2)nc2ccccc21`, the Potency was inconclusive: 39.8 µM [inhibitor, single point]. `CCOc1[nH]n(-c2ccc(Cl)cc2)c(=O)c1C=Nc1ccc(O)cc1` was tested, and the Potency was inconclusive: 20 µM [inhibitor, partial curve]. For `CCc1cccc(CC)c1NC(=O)CSc1nnc(CCC(=O)O)c(=O)[nH]1`, the “activity change, negative = inhibition” value was inactive: -21%. `Cc1cccc2cc(C3CC(c4cccs4)=NN3S(C)(=O)=O)c(Cl)nc12` (configuration not stated) was tested, and the Potency was inconclusive: 39.8 µM [inhibitor, single point]. In the case of `Cc1ccc2cc(/C=N/Nc3nc4ccccc4[nH]3)c(Cl)nc2c1`, the “activity change, negative = inhibition” value was inactive: 3.1%. In the case of `Cc1cccc(NC(=O)c2cc3c(=O)n4ccccc4nc3n(CC(C)C)c2=N)c1`, the Potency was inconclusive: 31.6 µM [inhibitor, single point]. With `COc1ccc(CCn2c(N)c(S(=O)(=O)c3cccs3)c3nc4ccccc4nc32)cc1OC` the Potency was inconclusive: 20 µM [inhibitor, partial curve]. `CC(C)(C)CN1CCNC(=O)C1CC(=O)NCCc1ccccc1F` (configuration not stated) was tested, and the Potency was inconclusive: 28.2 µM [inhibitor, partial curve]. `CC1=CC=CN2C1=NC(=O)CC2(C)C(=O)N(CC(=O)NC1CCCC1)c1cc(C)cc(C)c1` (configuration not stated) was tested, and the Potency was inconclusive: 31.6 µM [inhibitor, partial curve]. For `O=C(NCc1ccco1)c1nc2nc(-c3cccs3)cc(C(F)(F)F)n2n1`, the Potency was inconclusive: 31.6 µM [inhibitor, partial curve]. In the case of `O=C1c2ccccc2NC2(CCCC2)N1NS(=O)(=O)c1ccccc1`, the Potency was inconclusive: 31.6 µM [inhibitor, partial curve]. In the case of `C/C=C\C=C/C(=O)Nc1cccc(C2=NOC3(C2)C[C@@H](C(N)=O)N(C(=O)/C=C/C=C\C)C3)c1` (some centres not stated), the Potency was inconclusive: 25.1 µM [inhibitor, single point]. With `C=C(C)Cn1c(SCC(=O)N/N=C/c2cccc(O)c2)nc2ccccc2c1=O` the “activity change, negative = inhibition” value was inactive: 2.04%. In the case of `O=c1[nH]c2cc3c(cc2cc1C(c1nnnn1Cc1ccccc1)N1CCCCCC1)OCCO3` (configuration not stated), the Potency was inconclusive: 31.6 µM [inhibitor, partial curve]. `CCC1S/C(=C(\C#N)C(=O)NCc2ccco2)N(c2ccc(Br)cc2)C1=O` (configuration not stated) was tested, and the “activity change, negative = inhibition” value was inactive: -3.19%. With `N#CC1=C(N)C(C#N)(C#N)C(c2ccncc2)C2CN(C(=O)OCc3ccccc3)CC=C12` (configuration not stated) the Potency was inconclusive: 35.5 µM [inhibitor, single point]. `Cc1c(C)c2c(C)[nH]nc2oc1=O` was tested, and the Potency was inconclusive: 35.5 µM [inhibitor, single point]. `Cc1cc(C)n(-c2nc(C)nc3c2cnn3-c2ccccc2)n1` was tested, and the Potency was inconclusive: 6.31 µM [inhibitor, single point]. `COC(=O)C1=C(C)N(Cc2ccccc2)C(=O)N[C@H]1c1ccco1` was tested, and the Potency was inconclusive: 3.16 µM [inhibitor, partial curve]. `CC1=C(C#N)c2nc(N)c(C#N)c(C)c2/C1=C\c1ccc(OCC(=O)O)c(Cl)c1` was tested, and the Potency was inconclusive: 28.2 µM [inhibitor, single point]. For `O=c1oc(-c2ccccc2)nc2sc3c(c12)CCCC3`, the “activity change, negative = inhibition” value was inactive: 3.2%. With `COc1cccc(Nc2nc3cc(OC)ccc3cc2C#N)c1` the Potency was inconclusive: 35.5 µM [inhibitor, single point]. `N#CC(C(=O)c1ccc(S(=O)(=O)N2CCCCCC2)cc1)c1nc2ccccc2[nH]1` (configuration not stated) was tested, and the Potency was inconclusive: 35.5 µM [inhibitor, partial curve]. In the case of `CCn1c(C)cc(/C=C2/NC(=O)N(CC(=O)Nc3cccc(C)c3)C2=O)c1C`, the Potency was active: 22.4 µM. `Cc1cc2nc(-c3cccc(NC(=O)c4ccc(Br)o4)c3)oc2cc1C` was tested, and the Potency was inconclusive: 35.5 µM [inhibitor, single point]. `CNC(=S)N1N=C(c2ccc(OC)cc2)CC1c1ccc(Cl)cc1Cl` (configuration not stated) was tested, and the Potency was inconclusive: 35.5 µM [inhibitor, single point]. `COC(=O)c1cccc(NC(=S)Nc2cccc(Cl)c2C)c1` was tested, and the “activity change, negative = inhibition” value was inactive: -10.8%. `CCCCCn1c(=O)c(Cc2ccccc2)c(O)c2ccccc21` was tested, and the Potency was inconclusive: 28.2 µM [inhibitor, single point].

From PubChem BioAssay AID2147 (National Center for Advancing Translational Sciences (NCATS), 2009)
Note: nearly all actives have a fitted effect of over 50% in size.
Potency is the fitted concentration of half-maximal effect; tags give direction and shape of the fitted curve.
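Throughout, for activity change, negative = inhibition: 0% = wells with enzyme and -100% = buffer wells without enzyme.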
